Measurements published in PMC7819943, “Rice protein-binding microarrays: a tool to detect cis-acting elements near promoter regions in rice”.
The other results are listed elsewhere or left out.

Biological target: T1, OsWOX13 (Oryza sativa, UniProt Q5QMM3 1-267)
T1 sequence: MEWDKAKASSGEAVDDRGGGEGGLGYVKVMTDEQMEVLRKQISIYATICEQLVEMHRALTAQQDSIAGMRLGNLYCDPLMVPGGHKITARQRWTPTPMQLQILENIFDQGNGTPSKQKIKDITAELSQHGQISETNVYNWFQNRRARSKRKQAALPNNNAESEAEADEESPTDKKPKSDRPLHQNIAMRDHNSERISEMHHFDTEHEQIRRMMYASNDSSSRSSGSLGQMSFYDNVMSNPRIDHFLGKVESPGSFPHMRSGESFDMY
Assay: protein-binding microarray (RPBM); PBS, 2% BSA, 51.3 ng/ul salmon testes DNA, 50 uM zinc acetate, 200 nM TF, 25 C, 1 h; high values mean tight binding
Conditions: protein: recombinant; tags: N-terminal polyhistidine and DsRed monomer fusion (pET32a); label: CyDye5-dUTP incorporated in the synthesized complementary strand; 3' TTTTT single-stranded linker to array surface; dsDNA, one strand shown
How it was run: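 In PBS with 2% BSA, salmon testes DNA and 50 µM zinc acetate, 200 nM protein was incubated on a custom Agilent array at 25 °C for 1 h and then washed off. The array had been made double-stranded by primer extension with Cy5-dUTP and blocked with 2% BSA. The proteins were transcription factors fused N-terminally to polyhistidine and DsRed, expressed in E. coli BL21-CodonPlus and purified on Ni–NTA. The binding signal is per-feature fluorescence intensity (arbitrary units) from an Axon 4000B scanner.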

Row | Sequence | binding signal
1 | TACCGATTATTGACCGTTGGATCGAGACAGATCGAACGGCCGGAGTCACCTAGTGCAG | 3210 fluorescence intensity (a.u.)
2 | ATGATATTGACAATGGGTCTATTCCGTTCAGCTGGGCTGTCGGAGTCACCTAGTGCAG | 3300 fluorescence intensity (a.u.)
3 | GTTTGGACACTAATTATAAATGTTAAACATAGTCTATTAACGGAGTCACCTAGTGCAG | 4280 fluorescence intensity (a.u.)
4 | TATAATTTGAACCACCCTTATAATTTTCGTAAGGTAGTAGCGGAGTCACCTAGTGCAG | 10000 fluorescence intensity (a.u.)
5 | AATTAAACACTTAATTAACCCTTTGTTCTTCGGTTTATCGCGGAGTCACCTAGTGCAG | 12000 fluorescence intensity (a.u.)
6 | TCCCTCAAAATTTTGCTCCATTTACCGTTAGCTCAACGACCGGAGTCACCTAGTGCAG | 3590 fluorescence intensity (a.u.)
7 | GTTGTGAGATTAGATTAGAGGGAGGGAGAGGGAGATGGGTCGGAGTCACCTAGTGCAG | 5530 fluorescence intensity (a.u.)
8 | ATAAATTATCTATGTTTAAGAGAGTAATGTTGTTGATAAACGGAGTCACCTAGTGCAG | 9320 fluorescence intensity (a.u.)
9 | TTATTGACACTATCATCACTGATTTTACATTTAGAACTATCGGAGTCACCTAGTGCAG | 5650 fluorescence intensity (a.u.)
10 | CTTTAAGTGAAAAGATTGAATTGGAGGTAGCCCAAAGTGGCGGAGTCACCTAGTGCAG | 5540 fluorescence intensity (a.u.)
11 | GATAGATTTCATGTCATCTTAAATTGCTTGGTACTTGCAACGGAGTCACCTAGTGCAG | 6520 fluorescence intensity (a.u.)
12 | GCCTTGAAATAAATTTACTTTTATTTATACGGTAGTACGGCGGAGTCACCTAGTGCAG | 4070 fluorescence intensity (a.u.)
13 | CTATAATTACATGTGTCGACAAATATACAATTGTGGGGCTCGGAGTCACCTAGTGCAG | 18600 fluorescence intensity (a.u.)
14 | ACGGCTGTCAATATACTGAACTGGACTATTCTGTAACTACCGGAGTCACCTAGTGCAG | 3340 fluorescence intensity (a.u.)
15 | TCTAATATCTATTAATTTAGAATCAGGGAGAAAGTTCTGTCGGAGTCACCTAGTGCAG | 14200 fluorescence intensity (a.u.)
16 | CGAAATTAATTAGCGAAATTAATTAACGCTTTACACAAGGCGGAGTCACCTAGTGCAG | 64900 fluorescence intensity (a.u.)
17 | TTGATTAGTGAGCTATTAATGCATGGGCCTCTATAAATAGCGGAGTCACCTAGTGCAG | 12600 fluorescence intensity (a.u.)
18 | AATATTAATTATAAATATTAAACGTAGACTATTAATAAAACGGAGTCACCTAGTGCAG | 4270 fluorescence intensity (a.u.)
19 | CTCATCAATCTCCTCCGTCGCGGTCGCAGCTGCGGGAGTGCGGAGTCACCTAGTGCAG | 3520 fluorescence intensity (a.u.)
20 | CATATAAATTGACAACTTCTACTTAAACCTGACATGTGGGCGGAGTCACCTAGTGCAG | 54500 fluorescence intensity (a.u.)
21 | GAATAGTAAATTGACGTGGAAAACGAGGGTTTGCGTCTCTCGGAGTCACCTAGTGCAG | 19900 fluorescence intensity (a.u.)

Row | Sequence | binding signal
22 | GTTAGCTGAGGAGATTGGTGTTAAGATTGCAAACCCATGGCGGAGTCACCTAGTGCAG | 3890 fluorescence intensity (a.u.)
23 | CAAATTTTACAGAAATTTGGTTACAGACAGATGCTCCACCCGGAGTCACCTAGTGCAG | 4700 fluorescence intensity (a.u.)
24 | AATAGTTAATACTTAATTAATCGTGCAATAATGCATGTTCCGGAGTCACCTAGTGCAG | 9820 fluorescence intensity (a.u.)
25 | GATATTAGATTGGCTATAGATGAATTGGAGTTAGTAGTGGCGGAGTCACCTAGTGCAG | 52700 fluorescence intensity (a.u.)
26 | TTTTAATTGGAGATAGAGCAGATAGTGAGTTGTTAACCCACGGAGTCACCTAGTGCAG | 30200 fluorescence intensity (a.u.)
27 | CTAATGGACTGGAACTAAACAACCAGGCTGTTGCATTCTCCGGAGTCACCTAGTGCAG | 4100 fluorescence intensity (a.u.)
28 | CCATCCATTCATCCAGTTAATTAATTAGCTAAGCTAGCTTCGGAGTCACCTAGTGCAG | 17900 fluorescence intensity (a.u.)
29 | CCTTGACAGCGGTTCTTTAGATTATGGAAAGAAGTTCAACCGGAGTCACCTAGTGCAG | 12300 fluorescence intensity (a.u.)
30 | ATATATATATATATATATATATATATATATATATGAGGGTCGGAGTCACCTAGTGCAG | 28100 fluorescence intensity (a.u.)
31 | CTATTGATTGTTGGCGAGCATGTTCTTATCCAGTTGACTTCGGAGTCACCTAGTGCAG | 33100 fluorescence intensity (a.u.)
32 | AAATAATTAATCAATTTTAATACTCCTGCGAATAACCGAACGGAGTCACCTAGTGCAG | 35700 fluorescence intensity (a.u.)
33 | TTATATTAATTGGCTATTAGATTAGCTATAGATAAATTGGCGGAGTCACCTAGTGCAG | 60400 fluorescence intensity (a.u.)
34 | CGGTTCCAAATCAATCAAAACCCTAACCCTAACCCTCCCCCGGAGTCACCTAGTGCAG | 19900 fluorescence intensity (a.u.)
35 | TTAACTTAATCAAAACCAGTCATAAAAGATCTTTAGACGGCGGAGTCACCTAGTGCAG | 4360 fluorescence intensity (a.u.)
36 | CACTCTATTATTGCAATTCACCGGATGAGAAATTCTCCGTCGGAGTCACCTAGTGCAG | 4530 fluorescence intensity (a.u.)
37 | CACATTATTGATACTAATTTTCCCAAAAGTTTTCGGGCTTCGGAGTCACCTAGTGCAG | 27000 fluorescence intensity (a.u.)
38 | TACATATCAATAGTATTAATCAATTAACATTCTATTAGAACGGAGTCACCTAGTGCAG | 3390 fluorescence intensity (a.u.)
39 | GCTTGTCTCCGTTGATTGGTGGTAGCTTGTGTGATCCACACGGAGTCACCTAGTGCAG | 21100 fluorescence intensity (a.u.)
40 | CATGAGAAAATGATTAATTAATAAACGATATTAGAACTTGCGGAGTCACCTAGTGCAG | 18200 fluorescence intensity (a.u.)
41 | GTGATGTAGCAGTAGTCAATCAACCGAACCTGGCGAGTGGCGGAGTCACCTAGTGCAG | 9180 fluorescence intensity (a.u.)
42 | ATATGCTCCAGAAAATTATCAATTATTTAAAATGTCTTTTCGGAGTCACCTAGTGCAG | 5220 fluorescence intensity (a.u.)
